{
  "source": "patent US6660767B2",
  "about": "“Coumarin compounds as microtubule stabilizing agents and therapeutic uses thereof” (The Regents of the University of California, priority 2001, dated 2003)",
  "key": {"[1]": {"test_system": "microtubule plus ends", "assay": "Steady-state dynamic instability of individual microtubules by DIC video microscopy", "type": "biochemical, bovine", "settings": "for Mean Duration Growing / Mean Length Growing / Mean Length Shortening: plus ends at steady state", "protocol": "Analysis of dynamic instability behavior of individual microtubules at steady state was conducted with real-time DIC video microscopy as described by Walker et al. (1988) J. Cell Biol. 107:1437-1448 and Panda et al. (1995) Biochem 34:9921-9929, both of which are herein incorporated by reference. A Hamamatsu C2400 Newvicon video camera was used to capture the images of microtubules which were enhanced with a Hamamatsu DVS3000 digital image processor. Analysis of length changes was performed using a video analysis software program designed by N. Gliksman at the University of North Carolina.\nMicrotubules were grown at the ends of sea urchin flagellar axonemal fragments (seeds) to distinguish the plus and minus ends. The microtubules were allowed to achieve polymer-mass steady state which took less than about 30 minutes, and analysis of the steady-state dynamics was carried out for about 30 minutes to about 45 minutes without deterioration of the microtubules or any detectable changes in dynamics. The individual dynamic instability parameters were analyzed quantitatively. These included the rates of growing and shortening, the lengths of time microtubules grow and shorten, the mean lengths of each growing or shortening event, the transition frequencies from the growing or attenuated state to shortening or from shortening to the growing or attenuated or paused state, the percentage of total time the microtubules spend growing, shortening, or in the attenuated state, and the overall dynamicity, the combined total observable growing and shortening per unit time. See Kowalski, R. J. et al. (1993) 26(4):282-290, which is herein incorporated by reference.\nTubulin pellets were thawed and centrifuged at 4° C. to remove any aggregated or denatured tubulin. The purified tubulin was mixed with axoneme seeds and polymerized in PMME buffer (87 mM PIPES, 36 mM MES, 1.4 mM MgCl2, 1 mM EGTA, pH 6.8) comprising 1 mM GTP in the presence or absence of coumarin compounds. […].\nAfter 35 minutes of incubation, samples of microtubule suspensions (2.5 μl and 2.0 μl) were prepared for video microscopy, and the dynamics of individual microtubules were recorded at 37° C. as described previously (Panda et al. (1995) Biochem. 34:9921-9929, which is herein incorporated by reference).\nThe microtubule was determined to be in a growing phase if the microtubule increased in length by >0.2 μM at a rate >0.15 μm/min and in a shortening phase if the microtubule shortened in length by >0.2 μM at a rate >0.3 μm/min. Length changes equal to or less than 0.2 μm over the duration of six data points were considered as attenuation phases. The same tubulin preparation for all experiments was used and for preliminary experiments, an average of about 10 to about 15 microtubules was measured for each experimental condition, and for the results provided in Table 1, about 20 to about 30 microtubules were analyzed for each experimental condition.\nThe catastrophe frequency (transition from the growing or attenuated state to shortening) was calculated by dividing the number of catastrophes by the sum of the total time spent in the growing plus attenuated states for all microtubules for a particular condition. The rescue frequency (transition from shortening to growing or attenuation, excluding new growth from a seed) was calculated by dividing the total number of rescue events by the total time spent shortening for all microtubules for a particular condition. Control microtubules alternated between phases of growing and shortening, but also spent a small percentage of time in an attenuated state."}, "[2]": {"test_system": "HeLa cells", "assay": "HeLa cell assay of mitotic spindle and chromosome organization (immunofluorescence)"}, "[3]": {"settings": "1 μM dicoumarol, versus control"}, "[4]": {"settings": "previous experiments (second set), concentration not given"}, "[5]": {"settings": "previous experiments, 0.1 μM dicoumarol"}},
  "data": [
    {"smiles": "O=c1oc2ccccc2c(O)c1Cc1c(O)c2ccccc2oc1=O", "note": "[dicoumarol]", "values": [
      {"measurement": "decrease of frequency of catastrophe", "setting": "[1]; 0.1 μM dicoumarol", "result": "about 65%"},
      {"measurement": "increase of overall percentage of time in the paused (attenuated) state", "setting": "[1]; 0.1 μM dicoumarol", "result": "about 64%"},
      {"measurement": "reduction of dynamicity", "setting": "[1]; 0.1 μM dicoumarol", "result": "about 57%"},
      {"measurement": "frequency of catastrophe", "setting": "[1]; 0.1 μM dicoumarol (text), listed as Dicoumarol", "result": 0.22, "unit": "events/min"},
      {"measurement": "lengths of a shortening excursion", "setting": "[1]; 1 μM dicoumarol", "result": "about 1.4 μm"},
      {"measurement": "mean shortening rate", "setting": "[1]; 1 μM dicoumarol", "result": "about 7.8 μm per minute"},
      {"measurement": "reduction of lengths of a shortening excursion", "setting": "[1]; [3]", "result": "about 40%"},
      {"measurement": "reduction of mean shortening rate", "setting": "[1]; [3]", "result": "about 58%"},
      {"measurement": "rescue frequency", "setting": "[1]; dicoumarol", "result": "did not significantly alter"},
      {"measurement": "total time spent growing", "setting": "[1]; dicoumarol", "result": "no significant effect"},
      {"measurement": "Mean Duration Growing", "setting": "[1]; dicoumarol 0.04 μM", "result": "1.30 ± 0.18", "unit": "min"},
      {"measurement": "Mean Length Growing", "setting": "[1]; dicoumarol 0.04 μM", "result": "0.70 ± 0.09", "unit": "μm/event"},
      {"measurement": "Mean Length Shortening", "setting": "[1]; dicoumarol 0.04 μM", "result": "2.00 ± 0.53", "unit": "μm/event"},
      {"measurement": "Mean Duration Growing", "setting": "[1]; dicoumarol 0.1 μM", "result": "1.50 ± 0.29", "unit": "min"},
      {"measurement": "Mean Length Growing", "setting": "[1]; dicoumarol 0.1 μM", "result": "0.61 ± 0.10", "unit": "μm/event"},
      {"measurement": "Mean Length Shortening", "setting": "[1]; dicoumarol 0.1 μM", "result": "1.90 ± 0.43", "unit": "μm/event"},
      {"measurement": "Mean Duration Growing", "setting": "[1]; dicoumarol 1.0 μM", "result": "1.70 ± 0.30", "unit": "min"},
      {"measurement": "Mean Length Growing", "setting": "[1]; dicoumarol 1.0 μM", "result": "0.95 ± 0.22", "unit": "μm/event"},
      {"measurement": "Mean Length Shortening", "setting": "[1]; dicoumarol 1.0 μM", "result": "1.40 ± 0.44", "unit": "μm/event"},
      {"measurement": "Mean Duration Growing", "setting": "[1]; dicoumarol 10.0 μM", "result": "1.70 ± 0.38", "unit": "min"},
      {"measurement": "Mean Length Growing", "setting": "[1]; dicoumarol 10.0 μM", "result": "0.58 ± 0.09", "unit": "μm/event"},
      {"measurement": "Mean Length Shortening", "setting": "[1]; dicoumarol 10.0 μM", "result": "1.60 ± 0.37", "unit": "μm/event"},
      {"measurement": "Mean Duration Growing", "setting": "[1]; dicoumarol 50.0 μM", "result": "2.36 ± 0.34", "unit": "min"},
      {"measurement": "Mean Length Growing", "setting": "[1]; dicoumarol 50.0 μM", "result": "1.00 ± 0.17", "unit": "μm/event"},
      {"measurement": "Mean Length Shortening", "setting": "[1]; dicoumarol 50.0 μM", "result": "1.40 ± 0.21", "unit": "μm/event"},
      {"measurement": "decrease of frequency of catastrophe", "setting": "[1]; [4]", "result": "about 72%"},
      {"measurement": "decrease of rescue frequency", "setting": "[1]; [4]", "result": "about 27%"},
      {"measurement": "overall percentage of time in the paused (attenuated) state", "setting": "[1]; previous experiments (second set), concentration not given, control about 33.8%", "result": "about 47.24%"},
      {"measurement": "decrease of frequency of catastrophe", "setting": "[1]; [5]", "result": "about 50%"},
      {"measurement": "increase of overall percentage of time in the attenuated state", "setting": "[1]; [5]", "result": "about 64%"},
      {"measurement": "lengths of a shortening excursion", "setting": "[1]; previous results", "result": "about 1.6 μM"},
      {"measurement": "mean shortening rate", "setting": "[1]; previous results", "result": "about 5.2 μm per minute"},
      {"measurement": "reduction of lengths of a shortening excursion", "setting": "[1]; previous results", "result": "about 30%"},
      {"measurement": "reduction of mean shortening rate", "setting": "[1]; previous results", "result": "about 72%"},
      {"measurement": "reduction of dynamicity", "setting": "[1]; previous results, 0.1 μM dicoumarol", "result": "about 64%"},
      {"measurement": "average rate or lengths of growth", "setting": "[1]; various dicoumarol concentrations", "result": "no significant change"},
      {"measurement": "organization of mitotic spindle microtubules", "setting": "[2]; about 10 μM dicoumarol, about 20 hours", "result": "abnormal organization of mitotic spindle microtubules"},
      {"measurement": "effect on mitosis", "setting": "[2]; about 20 hours, range of dicoumarol concentrations", "result": "blocked mitosis at the transition form metaphase to anaphase"},
      {"measurement": "microtubule bundling or tubulin paracrystal formation", "setting": "[2]; high concentrations of dicoumarol", "result": "does not induce microtubule bundling or tubulin paracrystal formation"},
      {"measurement": "organization of interphase cytoplasmic microtubules", "setting": "[2]; low concentrations of dicoumarol", "result": "did not produce discernible changes"}
    ]}
  ]
}
